From PubChem BioAssay AID686979 (National Center for Advancing Translational Sciences (NCATS), 2013) come the findings set out here.

Molecules are shown by their SMILES. Screen size: about 420,000 compounds; about 50,000 (12%) were called active. Roughly 26% stayed inconclusive and do not appear here. Calls follow the shape of the dose curve; as a rule, active = well fitted inhibition curve with a large enough effect; inconclusive = small, poorly fitted or top-dose-only effect; inactive = flat fitted curve, though single readings scatter. The entries are a selection whose mix differs from that of the whole data set. More than one record can exist for a structure, and the calls need not agree.
% is scaled to controls: 0 for no effect and ±100 for the full control effect; potency is read from the fitted curve at half-maximal effect.

A short description of the test: qHTS for Inhibitors of human tyrosyl-DNA phosphodiesterase 1 (TDP1): qHTS in cells in presence of CPT. Also: nearly all actives have a fitted effect of over 55% in size. Particulars: chicken DT40 Tdp1-/-;hTDP1 cells + 20 nM CPT, ATP luminescence, 48 h; series mostly up to 46.2 µM; activity change, negative = growth inhibition: at the top concentration. The procedure, abridged: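 Cell growth measured by CellTiter-Glo luminescence after a minimum 48 h, 37 C compound exposure with 20 nM CPT in Tdp1-knockout DT40 cells stably expressing hTDP1, seeded 400/well; qHTS titration format.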
Background: qHTS replaces the single test concentration by a dilution series.
Take `O=C(CCCN1CCC(O)(c2ccc(Cl)cc2)CC1)c1ccc(F)cc1`: the “activity change, negative = growth inhibition” value was inactive: -3.25%.

With `COC(=O)[C@@H](N)CS`, the “activity change, negative = growth inhibition” value is inactive: -8.64%.

For `CCCCNC(=O)CCn1c(=O)c2ccccc2n(Cc2cc(C)ccc2C)c1=O`, the “activity change, negative = growth inhibition” value was inactive: -3.9%.

Take `COc1ccc(C2C(C#N)=C3NC(=O)c4c(sc5c4CCCCC5)N3C3=C2C(=O)CC(C)(C)C3)cc1` (stereo not given): the Potency is active: 16.4 µM.

For the compound `COc1ccc(OC)c(C2C(C(N)=O)=C(C)Nc3nc(-c4cccc(Cl)c4)nn32)c1` (stereo not given), the “activity change, negative = growth inhibition” value is inactive: -10.3%.

For `COc1ccc(NS(=O)(=O)c2ccc(C(=O)N3CCCCCC3)cc2)cc1`, the Potency was active: 10.3 µM.

As for `O=C(NCc1ccccc1)C1=C[C@@H](c2ccc3c(c2)OCO3)C[C@@H](OCCCCO)O1`, the “activity change, negative = growth inhibition” value was inactive: -13.3%.

Take `c1cncc(-c2nnc(-c3cccnc3)nn2)c1`: the Potency is active: 2.91 µM.

As to `Cc1cccc(C)c1OCCOCCN1CCN(C)CC1`, the “activity change, negative = growth inhibition” value was inactive: -10.9%.

`O=C1NC[C@H](c2ccccc2)OC(=O)[C@@H](Cc2ccc(F)cc2)CC/C=C/C[C@H]1CC(=O)N(CCO)Cc1ccccc1`: the Potency was active: 13 µM.
